Whole data set: some 110,000 compounds, median “z-score” near -0.1, cut for the highest 2% near 2. The list shows a part of the results. The source made the active and inactive calls.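 The calls were made as follows: active = z-score in the third read window above 3 or below -3; inactive = the rest.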
Target: Metabotropic glutamate receptor 8 (Rattus norvegicus) (UniProt P70579)
Assay: rat mGluR8 modulators via GIRK flux, primary screen, cell-based, thallium flux, HTS (AID 488969)
Settings: HEK293 rat mGluR8, GIRK (G protein-gated inwardly rectifying potassium channel) thallium flux, FluoZin2; at 10 µM; stronger effect = higher value; submaximal glutamate (EC20) added with thallium

Sequence of UniProt P70579 (P70579 whole entry, looked up): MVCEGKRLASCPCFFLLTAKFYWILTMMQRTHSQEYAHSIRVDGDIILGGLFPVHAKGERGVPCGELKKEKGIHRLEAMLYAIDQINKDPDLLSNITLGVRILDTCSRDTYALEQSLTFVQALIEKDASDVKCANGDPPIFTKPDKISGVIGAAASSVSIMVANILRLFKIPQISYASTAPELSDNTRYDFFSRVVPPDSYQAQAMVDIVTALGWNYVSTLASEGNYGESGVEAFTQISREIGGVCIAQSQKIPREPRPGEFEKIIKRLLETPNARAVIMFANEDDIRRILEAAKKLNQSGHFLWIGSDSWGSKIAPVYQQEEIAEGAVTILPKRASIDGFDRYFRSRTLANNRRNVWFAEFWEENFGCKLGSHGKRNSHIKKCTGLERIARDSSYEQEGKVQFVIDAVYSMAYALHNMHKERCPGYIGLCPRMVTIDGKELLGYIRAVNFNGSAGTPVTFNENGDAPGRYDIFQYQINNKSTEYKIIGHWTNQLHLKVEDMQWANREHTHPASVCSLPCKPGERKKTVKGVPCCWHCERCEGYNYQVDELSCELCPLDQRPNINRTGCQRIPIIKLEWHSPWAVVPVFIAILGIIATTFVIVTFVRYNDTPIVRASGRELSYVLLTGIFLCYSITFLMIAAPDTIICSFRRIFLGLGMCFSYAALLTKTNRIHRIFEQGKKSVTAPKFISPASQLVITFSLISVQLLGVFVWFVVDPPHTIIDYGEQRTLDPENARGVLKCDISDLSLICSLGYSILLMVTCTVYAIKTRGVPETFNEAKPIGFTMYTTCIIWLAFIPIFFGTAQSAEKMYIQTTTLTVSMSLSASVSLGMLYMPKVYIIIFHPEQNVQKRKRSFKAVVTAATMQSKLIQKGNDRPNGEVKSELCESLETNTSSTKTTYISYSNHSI

In order of falling z-score:
1. Cc1ccc(-c2cc(-c3cccs3)[nH]n2)c(O)c1  2.77
2. O=C(COc1ccc(Cl)cc1Cl)Nn1c(=S)[nH]c2ncccc2c1=O  1.69
3. Cc1nc2ccccn2c1C(=O)NNS(=O)(=O)c1ccc(C(C)(C)C)cc1  1.07
4. COc1ccc(NC(=O)Nc2ccccc2C(=O)N2CCCC2)cc1  1.05
5. CCN1CCN(Cc2cccc(Oc3ccc(Cl)cc3)c2)CC1  0.924
6. CCC(C)NC(=O)Cn1c(=O)n(-c2ccccc2)c(=O)c2ccc(C(=O)NCc3ccco3)cc21 (centres undefined)  0.899
7. CN(C)c1ccc(/C=N/N2C(=S)SC(C)(C)C2N(O)C(=O)Nc2ccc([N+](=O)[O-])cc2)cc1 (centres undefined)  0.883
8. COC(=O)C(C(=O)OC)=C(/C=C/C=C/N(C)C)N(C)C  0.735
9. CC1=C(C(=O)N2CCOCC2)C(c2cc(C)cs2)NC(=O)N1 (centres undefined)  0.566
10. CCOc1cc(S(=O)(=O)N2CC=C(c3ccc(F)cc3)CC2)c(OCC)cc1-n1cnnn1  0.498
11. COc1cc2c(cc1OC)C1(CCCC1)CNC2C (centres undefined)  0.459
12. CCc1c(C)nc2ncnn2c1N1CCC(C(=O)Nc2cccc(C(C)=O)c2)CC1  0.313
13. O=C(Cn1c(=O)oc2ccccc21)c1ccccc1  0.292
14. CCCCCC(=O)Nc1ccc(Cc2ccncc2)cc1  0.275
15. Cc1cccc(C)c1NC(=S)Nc1c(C)n(C)n(-c2ccccc2)c1=O  0.214
16. CCC(Oc1ccccc1)C(=O)Nc1cc(C)on1 (centres undefined)  0.195
17. Cc1ccc(N2C(=O)N(CC(=O)N(C)Cc3ccccc3)C(=O)C2C)cc1 (centres undefined)  0.144
18. CCN(CC)CCSc1nc(O)c(C(C)C)c(=O)[nH]1  0.101
19. CCOC(=O)CSc1nnc(-c2ccco2)n1C  0.096
20. CCC(C(=O)N1CCN(C(=O)c2ccco2)CC1)c1ccccc1 (centres undefined)  0.0759
21. S=C(NCCC1=CCCCC1)Nc1ccccc1  0.0488
22. O=C(CCCOc1ccc(Cl)cc1Cl)N/N=C/c1ccccc1  0.0235
23. COC(=O)c1ccc(NC(=O)CN2C(=O)CNC2=O)cc1  0.0202
24. O=C(Nc1ccc(-c2nc3ccccc3[nH]2)cc1)c1ccc2c(c1)OCO2  0.00562
25. COc1cc(/C=C2/NC(=O)N(Cc3ccccc3F)C2=O)ccc1Oc1ccc([N+](=O)[O-])cn1  -0.0118
26. Clc1ccc(-c2nc3n(n2)Cc2ccccc2-3)cc1  -0.0134
27. COC(=O)C(=O)/C=C(\O)c1ccc(C)cc1  -0.0478
28. Cc1ccc2c(c1)c(=O)c(Br)c(C)n2Cc1ccccc1  -0.0481
29. O=C(CSC1=NCCS1)NC1CCCC1  -0.0519
30. CCOC(=O)c1sc(=S)n(C)c1NC(=O)c1ccccc1C  -0.0912
31. CNC(=O)CN(C1CCCCC1)S(=O)(=O)c1ccc(OC)c(Cl)c1  -0.0915
32. CC(C)C(=O)Nc1cccc(NC(=O)c2ccc([N+](=O)[O-])cc2Cl)c1  -0.0969
33. C=C(C)CSc1nc2c(cc1C#N)CCC2  -0.119
34. Cc1nc(C#N)c(NCc2ccc3c(c2)OCO3)o1  -0.138
35. Cn1nc(C(F)(F)F)c(C(=O)Nc2ccc(Cl)cc2)c1Cl  -0.145
36. C/C(=C\C(=O)C(F)(F)F)Nc1cc(C)cc(C)c1  -0.152
37. O=[N+]([O-])c1ccc(/C=N/n2cnc3ccccc32)s1  -0.164
38. O=C(Nc1ccc2c(c1)OCO2)c1cc2n(n1)C(C(F)(F)F)CC(c1ccccc1)N2 (centres undefined)  -0.19
39. COc1ccc(Br)cc1C(=O)Nc1ccc(Cc2ccncc2)cc1  -0.203
40. Cc1cc(C(F)F)n2ncc(C(=O)N3CCc4ccccc4C3)c2n1  -0.232
41. COc1ccc(/C(C)=N/OC/C(O)=C(\C#N)c2nc3ccccc3[nH]2)cc1  -0.257
42. CC1CN(C(=S)SCC(=O)c2ccc(Cl)cc2)CC(C)O1 (centres undefined)  -0.281
43. COC(=O)COc1ccc(C2NC(=O)NC(c3ccccc3)=C2C(C)=O)cc1OC (centres undefined)  -0.291
44. CCOC(=O)CN1CC23C=CC(O2)C(C(=O)Nc2ccc(OCC)cc2)C3C1=O (centres undefined)  -0.308
45. Clc1ccc(CON/C=N/c2ncnc3sccc23)c(Cl)c1  -0.317
46. O=C(N/N=C\c1ccc(Cl)s1)c1ccc(Cn2cccn2)o1  -0.34
47. CC(=NCCN1CCN(C(C)=C2C(=O)c3ccccc3C2=O)CC1)C1=C(O)CC(C)(C)CC1=O  -0.34
48. Cc1c(C(=O)OCC(C)C)[nH]c2c1C(=O)CC(c1cccs1)C2 (centres undefined)  -0.347
49. CC1(C)CC(=O)C(=Cc2cn(-c3ccccc3)nc2-c2ccc(Cl)cc2)C(=O)C1  -0.347
50. COc1cc2nc(/C=C/c3ccc(N(C)C)cc3)sc2cc1SC  -0.35
51. COc1cc(C2CC(=O)c3cnc(N)nc3C2)cc(OC)c1OC (centres undefined)  -0.369
52. COc1cc2cccc(OC)c(=O)c2c(O)c1OC  -0.371
53. COc1cccc(NC(=O)N(Cc2cc3cc(C)cc(C)c3[nH]c2=O)CC2COCCO2)c1 (centres undefined)  -0.438
54. O=C(COc1cccc2c1CCN(Cc1ccccc1)C2=O)NCc1ccco1  -0.446
55. COC(=O)CCC/C=C1/SCC(NC(=O)c2ccccc2)C1=O (centres undefined)  -0.448
56. Cc1ccc(/C=C/C(=O)Nc2ncc(C)s2)o1  -0.48
57. Cc1cc(Cl)cc(Cl)c1CNc1c([N+](=O)[O-])c(=O)oc2ccccc12  -0.529
58. CC(C)Cn1cc(C(=O)NCC2CCCO2)c2c3ccccc3n(C)c2c1=O (centres undefined)  -0.552
59. Nc1nc(C2CC2)c(Sc2sc(N)nc2C2CC2)s1  -0.619
60. Cn1c(=O)n(CC(=O)OCc2ccccc2)c(=O)c2c1nc1n2CCCN1C1CCCCC1  -0.623
61. Cc1cccc(OCC(=O)Nc2cccc(C(=O)Nc3ccccc3C(=O)O)c2)c1  -0.673
62. CCOC(=O)C1=C(N)N(c2ccc(C)cc2)C2=C(C(=O)CCC2)C1c1cccs1 (centres undefined)  -0.711
63. O=c1c(-c2ccccc2)c(O)c2cccc3c2n1CCC3  -0.833
64. Cc1ccc2cccc(Oc3ncnc4sc(C)c(C)c34)c2n1  -0.904
65. CCOC(=O)c1c(NC(=O)c2ccc(N3C(=O)C4C5C=CC(C5)C4C3=O)cc2)sc2c1CCCC2 (centres undefined)  -0.914
66. Cn1c(=O)c2c(nc(NCc3ccc4c(c3)OCO4)n2Cc2ccc(F)cc2)n(C)c1=O  -0.915
67. COc1cccc(C2C(C(=O)c3cccs3)=C(O)C(=O)N2c2cc(C)on2)c1 (centres undefined)  -2.01

For `CCOC(=O)Cn1c(=N)n(CCOc2cccc(C)c2)c2ccccc21`, the z-score was active: 3.95.
With `CCCCN(CCCC)C(=O)CSc1nnc2n(C)c(=O)c3c4c(sc3n12)CCCC4` the z-score was active: -3.22.
